In publication PMC4336329 (PLoS ONE, 2015):
Screen size: about 310,000 compounds; about 14,000 (4.5%) showed an effect of 50% or more. The effect is printed as a negative number. The list shows a part of the results.

molecular target: human ether-à-go-go-related gene (hERG) potassium channel (human, UniProt Q12809); experiment: primary screen, population patch clamp on CHO cells stably expressing hERG
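Further: peak tail current of the secondary pulse compared with the same well before compound.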

Sequence of human ether-à-go-go-related gene (hERG) potassium channel (Q12809 whole entry, looked up): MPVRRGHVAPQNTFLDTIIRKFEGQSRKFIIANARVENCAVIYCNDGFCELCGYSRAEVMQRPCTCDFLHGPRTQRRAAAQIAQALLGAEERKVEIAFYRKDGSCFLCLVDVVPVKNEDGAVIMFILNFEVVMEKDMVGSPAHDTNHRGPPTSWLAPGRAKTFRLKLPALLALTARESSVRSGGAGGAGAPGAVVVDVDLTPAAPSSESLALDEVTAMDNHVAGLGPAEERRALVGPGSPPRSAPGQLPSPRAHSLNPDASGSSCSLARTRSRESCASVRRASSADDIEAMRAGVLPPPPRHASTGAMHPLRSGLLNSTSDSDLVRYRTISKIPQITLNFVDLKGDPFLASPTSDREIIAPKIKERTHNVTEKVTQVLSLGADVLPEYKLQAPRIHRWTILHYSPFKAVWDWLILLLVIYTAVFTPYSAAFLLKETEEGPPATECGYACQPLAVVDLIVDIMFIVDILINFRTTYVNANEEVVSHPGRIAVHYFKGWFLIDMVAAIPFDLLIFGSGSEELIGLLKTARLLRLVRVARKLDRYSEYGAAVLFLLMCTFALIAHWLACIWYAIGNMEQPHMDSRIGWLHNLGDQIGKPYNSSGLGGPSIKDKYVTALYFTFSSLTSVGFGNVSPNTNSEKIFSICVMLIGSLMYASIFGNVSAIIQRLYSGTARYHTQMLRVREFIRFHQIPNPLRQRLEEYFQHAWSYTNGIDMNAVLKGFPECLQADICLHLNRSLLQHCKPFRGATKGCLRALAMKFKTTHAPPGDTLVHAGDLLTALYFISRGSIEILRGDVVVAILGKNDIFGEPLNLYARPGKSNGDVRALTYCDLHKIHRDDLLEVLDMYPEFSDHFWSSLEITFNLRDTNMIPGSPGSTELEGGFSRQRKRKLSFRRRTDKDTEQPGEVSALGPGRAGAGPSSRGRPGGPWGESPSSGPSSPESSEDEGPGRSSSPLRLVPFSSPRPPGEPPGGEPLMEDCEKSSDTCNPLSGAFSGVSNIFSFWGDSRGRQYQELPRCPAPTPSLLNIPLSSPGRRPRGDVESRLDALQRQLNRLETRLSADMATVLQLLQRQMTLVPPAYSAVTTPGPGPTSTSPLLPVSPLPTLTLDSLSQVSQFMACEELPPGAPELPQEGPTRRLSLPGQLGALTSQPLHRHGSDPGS

Compared with `CCOC(=O)Cc1csc(NC(=O)CSc2cc(Cl)ccc2Cl)n1.O=C(O)C(=O)O`, `Cc1cccc(NC(=O)CSc2nnc(NC(=O)C3CC3)s2)c1C` is higher in “hERG current change (%, negative = inhibition) at 10uM” value: -1.74% for the first, 3.63% for the second.

Compared with `C=CCOc1c(CNc2ncn[nH]2)cccc1OC`, `Cc1ccccc1CSc1nnc(C)c(=O)n1N` is higher in “hERG current change (%, negative = inhibition) at 10uM” value: 9.23% for the first, 12.3% for the second.

Compared with `COc1ccccc1NC(=O)c1sc2nc(N3CCOCC3)c3c(c2c1N)CCCC3`, `CCOc1ccc(-c2cc(C(=O)NCC3CCCO3)c3ccccc3n2)cc1` (centres unmarked) is lower in “hERG current change (%, negative = inhibition) at 10uM” value: 15.2% for the first, -7.94% for the second.

Going from `O=C(Nc1cc(Sc2ccccn2)cc([N+](=O)[O-])c1)c1ccc([N+](=O)[O-])cc1` to `Cc1ccc(C(=O)NCCSc2ccc(Cl)cc2)cc1[N+](=O)[O-]`, the “hERG current change (%, negative = inhibition) at 10uM” value falls from -6.06% to -17%.

First: COc1cc(C(=O)N2CCN(C(=O)C(Cc3cc(C)ccc3C)NC(C)=O)CC2)cc(OC)c1OC (centres unmarked)
Second: CC(=O)c1c(C)n(-c2ccccc2)c2ccc(OCC(N)=O)cc12
The “hERG current change (%, negative = inhibition) at 10uM” value of the first is lower: -14.4% for the first, 16.5% for the second.

Compared with `Cn1c(SCC(=O)Nc2nc(C(C)(C)C)cs2)nnc1C1CC1`, `CCNc1nc(NCC)n2c(SCC(=O)NC34CC5CC(CC(C5)C3)C4)nnc2n1` is higher in “hERG current change (%, negative = inhibition) at 10uM” value: -24.4% for the first, -11.3% for the second.

Going from `CC(C(=O)N1CCc2ccccc21)N1CCN(S(=O)(=O)c2cccs2)CC1` (centres unmarked) to `O=C(NCc1ccccc1)N1CCC(Cc2ccccc2)CC1`, the “hERG current change (%, negative = inhibition) at 10uM” value rises from -28.8% to 10.5%.

Going from `CN(C(=O)CSc1ncnc2sccc12)C1CCS(=O)(=O)C1` (centres unmarked) to `NS(=O)(=O)c1ccc(CCNC(=O)CSc2nc3ccccc3c(=O)n2CC2CCCO2)cc1` (centres unmarked), the “hERG current change (%, negative = inhibition) at 10uM” value falls from 5.34% to -43.1%.

First: CC(=O)Nc1ccc(N/C=C/C(=O)c2ccc(Br)cc2)cc1
Second: COc1ccc(NC(=O)C2CC(c3ccc(Cl)cc3)=NO2)cc1 (centres unmarked)
The “hERG current change (%, negative = inhibition) at 10uM” value of the first is higher: 18.3% for the first, 5.65% for the second.

Compared with `CCC(C)CNC(=O)c1cccc(OC2CCN(CC(C)(C)C)CC2)c1` (centres unmarked), `C[C@@H](C(=O)NCc1ccc(S(C)(=O)=O)cc1)[C@@H]1C[C@@]1(C)[C@@H](NC(=O)OCc1ccccc1)c1ccccc1` is lower in “hERG current change (%, negative = inhibition) at 10uM” value: -7.71% for the first, -75.1% for the second.

Going from `O=C(COC(=O)c1ccco1)c1ccc(F)cc1` to `Brc1c(CSc2nnc(-c3ccco3)o2)nc2ccccn12`, the “hERG current change (%, negative = inhibition) at 10uM” value falls from 15.2% to -47.3%.

`Cc1nn(-c2ccccc2)c(N2CCCC2)c1/C=N/NC(=O)c1cc(-c2ccccc2)nc2ccccc12` was tested, and the “hERG current change (%, negative = inhibition) at 10uM” value was 13.3%.
